In PubChem BioAssay AID651820 (National Center for Advancing Translational Sciences (NCATS), 2012):
In all, about 340,000 compounds went through this assay and about 12,000 (3.5%) were called active. The shares of active, inactive and inconclusive entries below differ from those in the screen. Calls follow the shape of the dose curve; as a rule, active = well fitted inhibition curve with a large enough effect; inconclusive = small, poorly fitted or top-dose-only effect, or another doubt; inactive = no such curve, though single readings can be large or run the other way. Potencies of inconclusive entries are left out as doubtful fits.
% is scaled to controls: 0 for no effect and ±100 for the full control effect; potency is read from the fitted curve at half-maximal effect; tags tell the direction and shape of the fitted curve.

Assay: qHTS Assay for Inhibitors of Hepatitis C Virus (HCV)
Details: Huh7.5.1 HCVcc-Cre (HCVcc is cell-culture hepatitis C virus) infection, luciferase reporter, 44 h; activity change, negative = inhibition: at 41.8 µM (top of the series) unless noted
Method in brief: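 Infectious HCV cell culture screen: compound-treated cells (1,000/well, pre-plated 4 h) are infected with HCVcc-Cre at roughly 0.5 moi and grown 44 h. Infection is quantified by luciferase signal after 15 min substrate incubation at room temperature.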
In the case of `CCN(CC)C(=O)CSc1nc2cc3c(cc2c(=O)n1Cc1ccc2c(c1)OCO2)OCO3`, the Potency is reported as inconclusive [inhibitor, partial curve]. In the case of `CC(=O)NC1=NN(C(C)=O)C(c2ccc(C)cc2)S1` (stereo unspecified), the “activity change, negative = inhibition” value is reported as inactive: 1.75%. For `CC1CCN(CCC(=O)Nc2ccc(Br)cc2)CC1`, the Potency was inconclusive [inhibitor, partial curve]. With `Cc1ccccc1CS(=O)(=O)CC1(O)CCN(C(=O)c2cccc(C(F)(F)F)c2)CC1` the Potency was inconclusive [inhibitor, partial curve]. With `O=C1CC2OCC=C3CN4CCC56c7cc([N+](=O)[O-])ccc7N1C5C2C3CC46` (stereo unspecified) the “activity change, negative = inhibition” value was inactive: -0.493%. For `CC1=CC(C)C2C(=O)N(CCCN(C)C)C(=O)C2C1` (stereo unspecified), the Potency was inconclusive [inhibitor, single point]. With `COc1ccc(NC(C)=O)cc1CNC(=O)COc1c(C)c(C)cc(C)c1C` the “activity change, negative = inhibition” value was inactive: -1.75%. With `COc1cc(/C=N/N=C2/NC(=O)C(Cc3ccc(F)cc3)S2)ccc1O` (stereo unspecified) the “activity change, negative = inhibition” value was inactive: 1.88%. With `Cc1ccc(NC(=O)CSCC(=O)N=c2sccn2C)cc1` the “activity change, negative = inhibition” value was inactive: -0.121%. For `O=c1cnn(-c2ccccc2)c(-c2ccccc2)c1`, the Potency was inconclusive [inhibitor, single point]. In the case of `Cc1ccc2c(C)nc(Nc3nc(CSc4nc5ccccc5[nH]4)cc(=O)[nH]3)nc2c1`, the Potency is reported as inconclusive [inhibitor, single point]. With `CN(C)S(=O)(=O)Oc1cccc(C(=O)Nc2cccc(Cl)c2)c1` the Potency was active: 8.91 µM. In the case of `COc1cc(NC(=O)c2cccc(S(=O)(=O)N3CCCCC3)c2)cc(OC)c1OC`, the Potency is reported as inconclusive [inhibitor, partial curve]. With `CC(C)Oc1ccc(C(=O)NC2CCN(Cc3ccccc3)CC2)cc1` the Potency was inconclusive [inhibitor, partial curve]. In the case of `CCCn1cc(SCC(=O)NCc2ccco2)c2ccccc21`, the Potency is reported as inconclusive [inhibitor, partial curve]. In the case of `Cc1cc(C)nc(/N=C(\N)Nc2ccc(OCCC(C)C)cc2)n1`, the Potency is reported as active: 10 µM. With `Cc1cc(CSc2ccccc2)ccc1NC(=O)c1ccc(CN2CCOCC2)cc1` the Potency was inconclusive [inhibitor, full curve]. For `COc1cccc(/C=N/NC(=O)C(C)n2nc(C)c([N+](=O)[O-])c2C)c1O` (stereo unspecified), the Potency was inconclusive [inhibitor, single point]. With `Cc1cc(C)nc(N(C#N)CCOc2ccccc2)n1` the Potency was inconclusive [inhibitor, single point]. For `O=C(NCC1CCCO1)c1ccc(N2CCCCC2)nc1` (stereo unspecified), the “activity change, negative = inhibition” value was inactive: -3.29%. In the case of `OCCNCCCCSc1ccc(Cl)cc1`, the Potency is reported as active: 10 µM. With `CC1C(=O)N2CCCc3cc(S(=O)(=O)NCCc4ccccc4)cc1c32` (stereo unspecified) the Potency was inconclusive [inhibitor, single point]. With `CCN(CC)S(=O)(=O)c1ccc2oc(Nc3ccc(OC)cc3)nc2c1` the Potency was inconclusive [inhibitor, single point]. For `CCn1c(SCC(=O)N2CCN(c3ccccc3)CC2)nnc1-c1c[nH]c2ccccc12`, the Potency was active: 8.91 µM. With `COc1cc(NC(=O)COC(=O)c2ccc(C)c(S(=O)(=O)N3CCCCC3)c2)c(C)cc1[N+](=O)[O-]` the Potency was inconclusive [inhibitor, partial curve]. In the case of `Cc1cc(C)c(C#N)c(N2CCSCC2)n1`, the Potency is reported as inconclusive [inhibitor, partial curve]. With `CCN(CC)c1ccc(/C=N/NC(=O)c2c[nH]c3ccccc23)cc1` the Potency was inconclusive [inhibitor, partial curve]. In the case of `C=CCn1c(SCC(=O)c2ccc(O)c(O)c2)nnc1-c1cccc(Cl)c1`, the Potency is reported as active: 3.98 µM. In the case of `O=C(CNC(=O)c1ccco1)OCc1ccc(Cl)cc1`, the Potency is reported as inconclusive [inhibitor, single point]. In the case of `COc1ccc(CC(=O)NCC2CCCN(Cc3ccc(OC(F)(F)F)cc3)C2)cc1` (stereo unspecified), the “activity change, negative = inhibition” value is reported as inactive: -26.3%. With `COc1cc(C(F)(F)F)nc(-c2ccccn2)n1` the “activity change, negative = inhibition” value was inactive: -1.05%. In the case of `CC(C)N(C(=O)Cn1cc(S(=O)(=O)CC(=O)NC2CCCCC2)c2ccccc21)C(C)C`, the Potency is reported as inconclusive [inhibitor, partial curve]. In the case of `COCCNC(=O)CSc1nc2cc(OC)c(OC)cc2c(=O)n1Cc1ccco1`, the “activity change, negative = inhibition” value is reported as inactive: -28%. In the case of `COc1cccc(-c2cc3onc(-c4ccccc4)c3c(=O)n2C)c1`, the Potency is reported as inconclusive [inhibitor, single point]. For `CN(C)CCC=C1c2ccccc2CCc2ccccc21`, the Potency was inconclusive [inhibitor, partial curve]. With `Cc1ccnc2c1NC(=O)c1cccnc1N2C1CC1` the “activity change, negative = inhibition” value was inactive: 10.7%. With `CC(=O)c1ccc2c(c1)C1C(Cl)C(Sc3ccccc3[N+](=O)[O-])CC1C(c1ccccc1[N+](=O)[O-])N2` (stereo unspecified) the Potency was active: 2.24 µM. For `CC(C)(C)OC(=O)NCCCC[C@H](NC(=O)c1nc[nH]c1C(=O)N[C@@H](CCCCNC(=O)OC(C)(C)C)C(=O)OC(C)(C)C)C(=O)OC(C)(C)C`, the Potency was inconclusive [inhibitor, single point]. For `S=C(Nc1ccc(Cl)c(Cl)c1)NC1CCN(Cc2ccccc2)CC1`, the Potency was active: 14.1 µM. In the case of `O=C(CN1C(=O)c2ccc([N+](=O)[O-])cc2C1=O)Nc1cc(S(=O)(=O)N2CCOCC2)ccc1Cl`, the “activity change, negative = inhibition” value is reported as inactive: 16.2%. For `Cc1ccccc1N1CCN(Cc2c[nH]c3ccccc23)CC1`, the Potency was inconclusive [inhibitor, single point]. With `O=C1CCCN1c1ccc(S(=O)(=O)Oc2ccc(Cl)cc2)cc1[N+](=O)[O-]` the Potency was inconclusive [inhibitor, full curve]. For `COc1cc(OC)cc(-c2sc3ccc(OC)cc3c2-c2ccc3cc[nH]c3c2)c1`, the Potency was inconclusive [inhibitor, single point]. For `O=C(CCn1c(=O)oc2ccc(Cl)cc21)N1CCN(Cc2ccccc2)CC1`, the “activity change, negative = inhibition” value was inactive: 2.3%. For `CCN(CC)CCOc1ccc(Br)cc1`, the Potency was inconclusive [inhibitor, full curve, poor fit]. For `Cc1ccccc1OCC(=O)NNC(=O)c1ccc2c(=O)n3c(nc2c1)CCC3`, the “activity change, negative = inhibition” value was inactive: 6.46%. With `CCOc1ccc(NC(=O)CSC2=C(C#N)C(c3ccc4c(c3)OCO4)CC(=O)N2)cc1` (stereo unspecified) the Potency was inconclusive [inhibitor, single point]. In the case of `Cc1cccc(COC(=O)Nc2ccc(NC(=O)c3ccccc3Cl)cc2)c1`, the Potency is reported as inconclusive [inhibitor, partial curve]. With `Cc1ccc(-c2nc(N)nc(N)n2)c(C)c1` the “activity change, negative = inhibition” value was inactive: -10.6%. In the case of `COc1ccc(C(=O)/C=C/Nc2cccc(C)n2)cc1OC`, the Potency is reported as inconclusive [inhibitor, partial curve]. With `NC(=O)CC(NC(=O)c1ccc(Br)cc1)c1ccc(N2CCCCCC2)c([N+](=O)[O-])c1` (stereo unspecified) the Potency was inconclusive [inhibitor, single point]. For `CCCN1CCC(NC(=S)Nc2ccc([N+](=O)[O-])cc2)CC1`, the Potency was inconclusive [inhibitor, single point]. For `Cc1ccc(OCCC(=O)Nc2cc(S(=O)(=O)N3CCOCC3)ccc2N2CCCC2)cc1`, the Potency was inconclusive [inhibitor, partial curve]. For `CC(NC(=O)CCNC(=O)c1ccccc1Cl)C1CC2CCC1C2` (stereo unspecified), the “activity change, negative = inhibition” value was inactive: -5.91%. In the case of `CCN1CCN(c2ccc(NC(=O)c3ccc4c(c3)[nH]c(=O)n4Cc3ccc(OC)cc3)cc2)CC1`, the Potency is reported as inconclusive [inhibitor, partial curve]. In the case of `OC(CNC1CCCC1)COCCOc1ccc(Br)cc1` (stereo unspecified), the Potency is reported as inconclusive [inhibitor, full curve]. In the case of `NC(N)=N/N=C/c1ccc(Cl)cc1Cl`, the Potency is reported as inconclusive [inhibitor, single point]. In the case of `Cc1ccc(NC(=O)c2cc([N+](=O)[O-])ccc2NCc2cccnc2)cc1`, the Potency is reported as inconclusive [inhibitor, partial curve]. In the case of `CCOC(=O)c1sc(NNC(=O)c2ccc(C)cc2)nc1C`, the “activity change, negative = inhibition” value is reported as inactive: -17.7%. In the case of `COC(=O)c1cc(OC)nc2ccc(Br)cc12`, the Potency is reported as active: 11.2 µM. In the case of `Cc1c(C(=O)N2c3ccccc3CC2C)oc2ccccc12` (stereo unspecified), the Potency is reported as inconclusive [inhibitor, single point]. In the case of `CCc1ccccc1OCC(=O)Nc1cccc(S(=O)(=O)NCc2ccco2)c1`, the Potency is reported as inconclusive [inhibitor, partial curve]. With `O=S(=O)(c1ccccc1C(F)(F)F)N1CCN(c2ncnc3sccc23)CC1` the Potency was inconclusive [inhibitor, partial curve]. For `CC(C)OC(=O)/C(=C/c1ccc(Br)cc1)NC(=O)c1ccco1`, the “activity change, negative = inhibition” value was inactive: 13.6%. In the case of `CCOc1ncccc1C(=O)OCC(=O)c1cc(C)n(Cc2ccco2)c1C`, the “activity change, negative = inhibition” value is reported as inactive: 0.252%. With `O=C(c1ccc(O)c(Br)c1)c1cc(Br)ccc1O` the “activity change, negative = inhibition” value was inactive: 4.06%. For `Cc1cc(C(=O)N/N=C/c2c(CO)cnc(C)c2O)c2ccccc2n1`, the Potency was inconclusive [inhibitor, single point]. With `COc1ccc(/C=N/NC(=O)c2ccncc2)cc1Cn1nc([N+](=O)[O-])c(Br)c1C` the “activity change, negative = inhibition” value was inactive: 17.4%. With `CC(C)NS(=O)(=O)c1ccc(OCC(=O)N2CCN(Cc3ccc4c(c3)OCO4)CC2)c(Cl)c1` the Potency was active: 11.2 µM. In the case of `CC(C)C(C)NC(=O)COc1ccc(Sc2ccc(OCC(=O)NC(C)C(C)C)cc2)cc1` (stereo unspecified), the Potency is reported as inconclusive [inhibitor, partial curve]. With `COC(=O)c1cc2oc(C)cc2n1CC(=O)N1CCCc2ccccc21` the Potency was inconclusive [inhibitor, single point].
